Source: the DeepSol protein solubility set

Assay: soluble on expression in E. coli; label from the status in PepcDB or PDB records

Row | Sequence | soluble on expression in E. coli
1 | MGSDKIHHHHHHMITIKKGLDLPITGGPEQVIHNGPAIKHVATLGEEYIGLRPTMKIKVGDKVQKGQVIFEDKKNPGVKYTALASGTISEINRGAQRVLQSVVIEVEGDDSVSFAKYDAAALDTLEPQLVRDNLIESGMWPALRTRPFSKAPAVDSTPAGIFVTAIDTQPLAADPAVIINEHKEDFANGLRVLARLTEGKVYLCKAPGADIPAANAQVEEFAGPHPAGLAGTHIHFVLPASAKRTVWHVGYQDVIAIGQLFTTGELNTQRVVAIAGPKALKPRLVRTHSGASIAELTAGETAQGDVRVIAGSVLSGKTATGPHAYLGRFFNQVSLLEEGREQEFIGWAMPGANKFSITRAFLGHLSPSRLFNMTTSTGGSDRAMVPIGNYERVMPLDILPTMLLRDLVSGDTDGAAALGALELDEEDLALCTFVCPGKYDYASYLRDCLDTIVREG | not soluble
2 | MHYPEPLSKLIDSFMKLPGIGPKTAARLAFHVLAMKEDTVLEFAKALVDVKRHIHYCTICGHITDTDPCYICKDERRDRTTICVVQDPKDVIAMERMKEYNGLYHVLHGAISPMEGIGPEDIKIAELLTRLQDETVQEVILATDPNIEGEATAMYISRLLKPTGIKVTRIAHGLPVGGDLEYADEVTLSKALEGRREL | soluble
3 | MSNLRLQKRLASAVLKCGKHRVWLDPNEVSEISGANSRQSIRRLVNDGLIIRKPVTVHSRFRAREYEEARRKGRHTGYGKRRGTANARMPEKTLWIRRMRVLRNLLRRYRDAKKLDKHLYHELYLRAKGNNFKNKKNLIEYIFKKKTENKRAKQLADQAQARRDKNKESRKRREERQVVKRAELLRKISQSEKVIAGK | soluble
4 | NALKTPEKLQQAALPIVSEADCKKSWGSKITDVMTCAGASGVDSCMGDSGGPLVCQKDGVWTLAGIVSWGSGVCSTSTPGVYSRVTALMPWVQQILEAN | soluble
5 | QVQLVESGGGVVQPGRSLRLSCAASGFTFSSYGMHWVRQAPGKGLEWVAVISYDGSNKYYADSVKGRFTISRDNSKNTLYLQMNSLRAEDTAVYYCAKDGKCAGGSCYSGLLDYWGQGTLVTVSSASFKGPSVFPLAPSSKSTSGGTAALGCLVKDYFPEPVTVSWNSGALTSGVHTFPAVLQSSGLYSLSSVVTVPSSSLGTQTYICNVNHKPSNTKVDKKVEPKSCDKTHTGLEHHHHHH | soluble
